Where “and” joins values, the source holds several entries; their conditions need not be identical. Equal values may be shown once. Hit rate of the full screen: of about 150,000 compounds, about 540 (0.36%) showed an effect of 50% or more. This is one part of the list.
Tested on: Plasmodium falciparum
Assay: Primary screen in NF54 nanoGlo assay, in single point, at 2uM, 72h; a lower Z score goes with more inhibition
Type: functional, Erythrocyte
Details: timepoint 72 hour

SMILES | % Inhibition | Z score | % Inhibition (2 µM)
Cc1cc(C)n(S(=O)(=O)N2CCOCC2)n1 | -1% | 0.26 | –
Cc1cc(C(=O)Nc2ccc3ccccc3c2)c(C)o1 | -10% | 1.11 | –
COCCn1nnnc1N1CCN(C(=O)OC(C)(C)C)[C@@H](C)C1 | – | – | -2% and 15%
CC1CCN(C(=O)c2ccc(N3CCCC(CO)C3C)nc2)CC1 (stereo unspecified) | -16% | 2.97 | –
CC1CCC(n2cc(-c3cccs3)nn2)C1 (stereo unspecified) | -20% | 2.7 | –
Cc1ccc(C(=O)N(CCN2CCCCC2)C2CCOCC2)cc1F | -15% | 2.5 | –
Cc1ccc(-c2cnc(N)cn2)c(-n2cccn2)c1 | 11% | -2.11 | –
Cc1nc2[nH]cnc2cc1-c1ccc(CN(C)C)cc1 | -15% | 1.49 | –
CCC[C@H]1CN(CCO)C[C@@H]1NC(=O)c1ccc(OC)cc1 | -2% | 0.32 | –
CCCCN1CC(C(=O)N2CC(C)CC(C)C2)CC1=O (stereo unspecified) | -5% | 0.76 | –
COc1ccc(-c2noc([C@@](C)(O)Cn3c(C)cccc3=O)n2)cc1OC | -8% | 0.75 | –
Cc1c(N[C@@H](CC2CCN(C(=O)OC(C)(C)C)CC2)c2cccnc2)cnn1C | -9% | 1.58 | –
CC(C)N1CCC[C@H]1C(=O)Nc1nc2cccnc2n1C | -3% | 0.45 | –
CN(Cc1ccsc1)C(=O)CNC(=O)COc1ccccc1 | -11% | 1.45 | –
CC[C@H](NC(=O)CCC(=O)c1cccc2ccccc12)C1CC(O)C1 (stereo partly specified) | 9% | -1.21 | –
Cc1cccc2oc(CNC(=O)CCN3C[C@@H](C)O[C@@H](C)C3)nc12 | 0% | 0.04 | –
C=CCN(CC(F)(F)F)C(=O)CC1CCC2(CC1)OCCO2 | 5% | -0.96 | –
O=C(Nc1n[nH]c(C(F)(F)F)n1)c1ccc2nnnn2c1 | -11% | 1.34 | –
CC(=O)Nc1ccc(NC(=O)N2CCCCCCC2)cc1 | -7% | 1.48 | –
NC(=O)C[C@@H](CC(=O)OCc1ccccn1)c1ccccc1 | 7% | -0.82 | –
CC(=O)c1nn(-c2ccc(OC(F)(F)F)cc2)nc1Nc1ccc(F)cc1 | -13% | 1.55 | –
CC(C)(C)OC(=O)NC1(CO)CCN(c2nc(-c3ccccc3)ns2)CC1 | 4% | -0.67 | –

SMILES | % Inhibition | Z score | % Inhibition (2 µM)
Clc1ccccc1CNc1nc(-c2ccccc2)no1 | -11% | 0.94 | –
CC(NC(C)c1ccc(Cl)cc1Cl)C(=O)NC1CCCCC1 (stereo unspecified) | -11% | 1.69 | –
O=C(Cc1ccccc1)C1CCCN(C(=O)C2CCOC2)C1 (stereo unspecified) | -2% | 0.3 | –
CC(C)CCS(=O)(=O)NC(=O)C1CC2CCC(C1)C2=O (stereo unspecified) | -11% | 0.95 | –
C#C[C@H](C)OC(=O)c1ccc(N(CC)CC)nc1 | -7% | 0.59 | –
COc1ccc2c(c1)N1CCN(c3ccccn3)CC1C(C(=O)NC(C)C)C2 (stereo unspecified) | -1% | 0.15 | –
CN1C[C@@H](NC(=O)c2ccn(C)n2)Cc2ccccc21 | -11% | 1.48 | –
C[C@H](NC(=O)N1Cc2ccccc2C2(CC2)C1)C(C)(C)CN(C)C | -7% | 0.7 | –
Cc1ccc(-c2noc(CCC(=O)NC3CCCC3)n2)c(=O)n1C(C)C | -8% | 1.17 | –
CC1=CCCC(C)C1CN1CCC(n2cncn2)CC1 (stereo unspecified) | -7% | 0.94 | –
C[C@H](NS(=O)(=O)c1ccc2c(c1)NC(=O)CO2)c1ccccn1 | -43% | 5.06 | –
O=C(CCC1CCCCCC1)N1CCC(c2cnco2)CC1 | -7% | 0.83 | –
Cc1cccc(N/C(=N/C(=N)NC(=O)c2ccccc2)Nc2nc(C)cc(C)n2)c1 | -1% | 0.24 | –
CCO[C@H]1CCCN(C(=O)c2cn(-c3ccccc3)nc2-c2ccc(C)o2)C1 | -8% | 1.03 | –
Cc1nc(NCc2nnc3n2CCC3)c2cccnc2n1 | -10% | 1.41 | –
CCOC(=O)c1nc(Nc2cccc(C)c2)c2c(C)c(C)n(-c3ccccc3)c2n1 | -1% | 0.16 | –
CC(=O)c1ccc(OCCN2C(=O)C3(OCCO3)c3ccc(Cl)c(Cl)c32)cc1 | 2% | -0.35 | –
O=C(Nc1cccc(C(F)(F)F)c1)[C@@H]1C2C=CC(C2)[C@@H]1C(=O)O (stereo partly specified) | -9% | 1.41 | –
CCN1CCN(S(=O)(=O)N2CCCC[C@@H]2C)CC1 | 6% | -0.76 | –
CCCn1c(C)nnc1COC(=O)c1cccc2cn[nH]c12 | 29% | -2.96 | –
Cn1cc(C(=O)N[C@@H]2CCCc3c(F)cc(F)cc32)cn1 | -12% | 2.27 | –
CC(C)(C)CN1CCC[C@H](N2CCC(O)(O)C(F)(F)C2)C1=O | -7% | 1.43 | –

SMILES | % Inhibition | Z score | % Inhibition (2 µM)
CC(=O)N1CCCN(C(=O)c2cnc3ccccc3n2)CC1 | -4% | 0.51 | –
CC(C)(CN[C@H](C1CCCCC1)C1CC1)C(N)=O | -10% | 1.45 | –
Cc1cccc(CN(C(=O)CCn2ccc(=O)[nH]c2=O)C2CCCCC2)c1 | -7% | 1.31 | –
CN(C)S(=O)(=O)N(CCNC(=O)Nc1ccccc1)C1CCOCC1 | -9% | 1.43 | –
Cn1nnc(-c2cccc(NC(=O)c3[nH]nc4c3CCC4)c2)n1 | -16% | 1.7 | –
COC1([C@H](C)NC(=O)c2cnn3c2CCC3)CCC1 | -9% | 1.22 | –
O=C(NC1CC1)[C@@H]1CN(Cc2cccn2-c2nccs2)CCN1 | -2% | 0.48 | –
CCCc1cncnc1-c1cccc(C(=O)N2CCN3CCNC(=O)[C@@H]3C2)c1 | -11% | 1.94 | –
Nc1ccc(-c2ccc(S(=O)(=O)c3cccc(N)c3)cc2N)cc1 | -4% | 0.82 | –
CC(CCS(C)(=O)=O)NC(=O)NC1CCCC12CCOCC2 (stereo unspecified) | 7% | -0.88 | –
Cc1ccc(-c2nnc3c4ccccc4nc(N4CCCN(C(=O)c5cccc(C)c5)CC4)n23)cc1 | 9% | -1.78 | –
CC(C)CC1NC(=O)C(O)(C(F)(F)F)NC1=O (stereo unspecified) | 1% | -0.08 | –
O=C(NCCCc1ccccc1)N1C2CCC1CC(n1cncn1)C2 (stereo unspecified) | -12% | 1.37 | –
Cc1cc(C(=O)N2CCC(Cc3ccc(CCC(=O)N4CCCC4)cc3)CC2)n(C)n1 | -9% | 1.22 | –
O=c1nc([C@H]2CCCN(c3ncnc4ccc(F)cc34)C2)[nH][nH]1 | -5% | 0.45 | –
C[C@@H]1CN(CC(=O)N2CC[C@](C)(O)[C@H](Cc3ccccc3)C2)C[C@H](C)O1 | -7% | 1.26 | –
CCC(=O)N1CCc2cc(CNC(=O)c3ccc(N(C)C)cc3)ccc21 | -11% | 1.93 | –
CC(=O)NCC1CCN(Cc2cc3cc(F)ccc3n2C)CC1 | 8% | -0.69 | –
Cc1ccccc1CNC(=O)N1C[C@H](C(=O)O)[C@@H](C2CC2)C1 | -3% | 0.59 | –
CC(=O)N1CCC(NC2(Cc3cc(CN(C)Cc4ccccc4)on3)COC2)CC1 | 17% | -1.94 | –
CS(=O)(=O)N1CCC(Oc2nc3c(F)cc(F)cc3s2)CC1 | -8% | 1.11 | –
CCN1C(=O)CC(C(=O)O)C1c1ccccc1C (stereo unspecified) | 3% | -0.31 | –

SMILES | % Inhibition | Z score | % Inhibition (2 µM)
CC(=O)Nc1cccc(NC(=O)COc2cccc3c2CCC=C3)c1 | -10% | 0.86 | –
Cc1nc2cc(NC(=O)C(C)C)cc(C(=O)N(C)Cc3cnn(C)c3)c2n1Cc1ccccc1 | -16% | 2.09 | –
O=S(=O)(C[C@H]1CCCCO1)N1CCC(Oc2ccccc2Cl)CC1 | -7% | 1.02 | –
O=C1CCCN1C[C@H]1CCCN(C(=O)c2cn[nH]c2)C1 | 3% | -0.55 | –
O=C(Nc1nc2ccccc2[nH]1)c1ccon1 | -9% | 0.81 | –
O=C(NCC[C@H](O)c1cccc(Cl)c1)c1ccoc1 | 1% | -0.22 | –
Cc1cc(S(=O)(=O)N2CCC[C@H]2c2ccc(CN(C)C)cc2)c(C)s1 | -2% | 0.2 | –
CC(C)CCN1CCOC[C@H]1c1ncon1 | -5% | 0.75 | –
O=C(Nc1nnc2ccccn12)c1c[nH]nc1-c1ccccc1 | 4% | -0.43 | –
Cn1cc(NC(=O)N2CCCC[C@@H]2CCc2ccccc2)cn1 | -8% | 1.39 | –
CCOc1cccc(CNC(=O)C2CN3CCCC3CO2)c1 (stereo unspecified) | 10% | -1.13 | –
Cc1ccn2c(NS(=O)(=O)c3c(Cl)cc(Cl)cc3Cl)nnc2c1 | -9% | 1.38 | –
COc1ccc(CCNC(=O)c2cccc3sc(N4CCCc5ccccc54)nc23)cc1OC | -7% | 0.95 | –
COc1ccc(NC(=O)CC2(N3Cc4ccccc4C3=O)CCN(C(C)=O)CC2)cc1 | -6% | 0.73 | –
CCCN(C)c1nccn2c(=O)n(CC(=O)Nc3ccc(C)cc3)nc12 | 5% | -0.92 | –
CCc1nc(CC(=O)NC(c2ccc(F)cc2)C2CCCO2)cs1 (stereo unspecified) | -3% | 0.46 | –
C#CCN(C)C(=O)[C@@H](C)c1ccccc1 | -5% | 0.64 | –
COc1ccc(C(=O)N/C(=N/c2cccc(C)c2)N2CCN(C3CCCCC3)CC2)cc1OC | 1% | -0.25 | –
COc1ccc(C(=O)N2c3ncnn3C(c3ccccc3)CC2c2ccc(C)cc2)cc1OC (stereo unspecified) | 76% | -10.75 | –
O[C@@H]1CCC[C@@H]2CN(Cc3cc(F)cc(F)c3)C[C@@H]21 | -9% | 0.9 | –
